This is one part of the list.
B1: PhoQ; a variant is named by its letters at X, in order, P23837 (parent)
chain: MKKLLRLFFPLSLRVRFLLATAAVVLVLSLAYGMVALIGYSVSFDKTTFRLLRGESNLFYTLAKWENNKLHVELPENIDKQSPTMTLIYDENGQLLWAQRDVPWLMKMIQPDWLKSNGFHEIEADVNDTSLLLSGDHSIQQQLQEVREDDDDAEMTHSVAVNVYPATSRMPKLTIVVVDTIPVELKSSYMVWSWFIYVLSANLLLVIPLLWVAAWWSLRPIEALAKEVRELEEHNRELLNPATTRELTSLVRNLNRLLKSERERYDKYRTTLTDLTHSLKTPLXXLQXXLRSLRSEKMSVSDAEPVMLEQISRISQQIGYYLHRASMRGGTLLSRELHPVAPLLDNLTSALNKVYQRKGVNISLDISPEISFVGEQNDFVEVMGNVLDNACKYCLEFVEISARQTDEHLYIVVEDDGPGIPLSKREVIFDRGQRVDTLRPGQGVGLAVAREITEQYEGKIVAGESMLGGARMEVIFGRQHSAPKDE

Variants of: B1
Assay: enrichment ratio after two sorts for PhoP signalling (ratio (wild type AVST 3.29)); higher = more functional
Settings: with PhoP (E. coli)

Row | Variant | enrichment ratio
1 | QMIY | ≤ 0.25
2 | RILN | ≤ 0.25
3 | ETDP | ≤ 0.25
4 | RMML | ≤ 0.25
5 | PKAI | ≤ 0.25
6 | TRWT | ≤ 0.25
7 | IAST | ≤ 0.25
8 | TTVT | 1.12
9 | IHLR | ≤ 0.25
10 | KFTA | ≤ 0.25
11 | WYTP | ≤ 0.25
12 | EESK | ≤ 0.25
13 | EPLA | ≤ 0.25
14 | TTTY | 5.49
15 | KKPC | ≤ 0.25
16 | RQTT | ≤ 0.25
17 | RNGW | ≤ 0.25
18 | GHHP | ≤ 0.25
19 | GWVM | ≤ 0.25
20 | TCME | ≤ 0.25
21 | DATN | ≤ 0.25
22 | RHLT | ≤ 0.25
23 | SVVD | ≤ 0.25
24 | FNCI | ≤ 0.25

Row | Variant | enrichment ratio
25 | PWKQ | ≤ 0.25
26 | ELDI | ≤ 0.25
27 | DCCG | ≤ 0.25
28 | KDNP | ≤ 0.25
29 | PQIL | ≤ 0.25
30 | TYME | ≤ 0.25
31 | SNTD | ≤ 0.25
32 | PMRD | ≤ 0.25
33 | QTFC | ≤ 0.25
34 | SFFS | ≤ 0.25
35 | GVPL | ≤ 0.25
36 | GPTY | ≤ 0.25
37 | FLAR | ≤ 0.25
38 | FFWI | ≤ 0.25
39 | MTWY | 21.6
40 | GNWH | ≤ 0.25
41 | REMG | ≤ 0.25
42 | TGNQ | 4.5
43 | SSLM | 17.1
44 | DHHN | ≤ 0.25
45 | PGHF | ≤ 0.25
46 | MMNT | ≤ 0.25
47 | EEFS | ≤ 0.25
48 | EFCV | ≤ 0.25

Row | Variant | enrichment ratio
49 | RAMM | ≤ 0.25
50 | GAMM | 14.4
51 | DDIV | ≤ 0.25
52 | QMNS | ≤ 0.25
53 | PKHT | ≤ 0.25
54 | FAHG | ≤ 0.25
55 | QQKT | ≤ 0.25
56 | PELN | ≤ 0.25
57 | SHGQ | ≤ 0.25
58 | FDIA | ≤ 0.25
59 | RHLE | ≤ 0.25
60 | PVMT | ≤ 0.25
61 | FGCC | 13.2
62 | DAMG | ≤ 0.25
63 | AHFW | ≤ 0.25
64 | AQHY | ≤ 0.25
65 | TYVY | ≤ 0.25
66 | GINR | ≤ 0.25
67 | RTMN | ≤ 0.25
68 | HDSG | ≤ 0.25
69 | ICMQ | ≤ 0.25
70 | KSFH | ≤ 0.25
71 | FLTY | ≤ 0.25
72 | TKFT | ≤ 0.25

Row | Variant | enrichment ratio
73 | DRFC | ≤ 0.25
74 | SDFY | ≤ 0.25
75 | DMVI | ≤ 0.25
76 | AFSQ | ≤ 0.25
77 | KPCQ | ≤ 0.25
78 | TFRQ | ≤ 0.25
79 | IPEL | ≤ 0.25
80 | VPDM | ≤ 0.25
81 | NLMM | ≤ 0.25
82 | DTAM | ≤ 0.25
83 | SCFT | ≤ 0.25
84 | AWHD | 24.7
85 | YIFM | ≤ 0.25
86 | ASND | ≤ 0.25
87 | ILCM | ≤ 0.25
88 | MGCL | 3.84
89 | NIIK | ≤ 0.25
90 | HFAD | ≤ 0.25
91 | EKVC | ≤ 0.25
92 | LELE | ≤ 0.25
93 | LMCY | ≤ 0.25
94 | RPCE | ≤ 0.25
95 | YWLQ | ≤ 0.25
96 | DYQP | ≤ 0.25

Row | Variant | enrichment ratio
97 | QVIS | ≤ 0.25
98 | PEPW | ≤ 0.25
99 | PSEW | ≤ 0.25
100 | SPKS | ≤ 0.25
101 | NFDS | ≤ 0.25
102 | MFAH | ≤ 0.25
103 | VDIT | ≤ 0.25
104 | LCQQ | ≤ 0.25
105 | HSQY | ≤ 0.25
106 | KSNY | ≤ 0.25
107 | KGAI | ≤ 0.25
108 | QVAP | ≤ 0.25
109 | SQEI | ≤ 0.25
110 | NRAY | ≤ 0.25
111 | MREI | ≤ 0.25
112 | YPKY | ≤ 0.25
113 | FIHH | ≤ 0.25
114 | LAIQ | ≤ 0.25
115 | PVTY | ≤ 0.25
116 | PVFS | ≤ 0.25
117 | VLRW | 0.62
118 | IHQD | ≤ 0.25
119 | EYYI | ≤ 0.25
120 | KAVS | ≤ 0.25

Row | Variant | enrichment ratio
121 | HIRC | ≤ 0.25
122 | FSEQ | ≤ 0.25
123 | EMNS | ≤ 0.25
124 | LCVT | ≤ 0.25
125 | DMLW | ≤ 0.25
126 | HPVQ | ≤ 0.25
127 | ILPS | ≤ 0.25
128 | VDNA | ≤ 0.25
129 | TGQA | 3.89
130 | MHGP | ≤ 0.25
131 | VAYV | ≤ 0.25
132 | YNLE | 1
133 | YYRV | ≤ 0.25
134 | KFDT | ≤ 0.25
135 | TGPH | ≤ 0.25
136 | KVVF | ≤ 0.25
137 | DTNW | ≤ 0.25
138 | HFVQ | ≤ 0.25
139 | MYPV | ≤ 0.25
140 | DAHN | ≤ 0.25
141 | QSEQ | ≤ 0.25
142 | FQNP | ≤ 0.25
143 | PSRV | ≤ 0.25
144 | MRCM | ≤ 0.25

Row | Variant | enrichment ratio
145 | MAFW | ≤ 0.25
146 | DPIC | ≤ 0.25
147 | SEMV | 23.8
148 | TSVQ | 3.16
149 | QGGR | ≤ 0.25
150 | HLTT | ≤ 0.25
151 | FVPH | ≤ 0.25
152 | LCNS | ≤ 0.25
153 | NICG | 0.875
154 | GMTA | ≤ 0.25
155 | HNLF | ≤ 0.25
156 | ISRA | ≤ 0.25
157 | GHNC | ≤ 0.25
158 | RQSY | ≤ 0.25
159 | HFRH | ≤ 0.25
160 | EETN | ≤ 0.25
161 | YFYA | ≤ 0.25
162 | AFRV | ≤ 0.25
163 | WFRT | ≤ 0.25
164 | AFAH | ≤ 0.25
165 | RSHR | ≤ 0.25
166 | ADAW | ≤ 0.25
167 | GKYS | ≤ 0.25
168 | PISQ | ≤ 0.25

Row | Variant | enrichment ratio
169 | QHWA | ≤ 0.25
170 | RVYC | ≤ 0.25
171 | HHSA | ≤ 0.25
172 | TKVM | 36.7
173 | YSST | ≤ 0.25
174 | KAKI | ≤ 0.25
175 | GHPT | ≤ 0.25
176 | TKHG | ≤ 0.25
177 | HNSM | 0.923
178 | QTFY | ≤ 0.25
179 | EQFI | ≤ 0.25
180 | WGSN | ≤ 0.25
181 | VWLN | ≤ 0.25
182 | HNEF | ≤ 0.25
183 | EGYR | ≤ 0.25
184 | VWHK | ≤ 0.25
185 | FAPY | ≤ 0.25
186 | DNMD | ≤ 0.25
187 | LNCC | ≤ 0.25
188 | IFRD | ≤ 0.25
189 | EIVN | ≤ 0.25
190 | NWYA | ≤ 0.25
191 | FKQL | ≤ 0.25
192 | LRQN | ≤ 0.25

Row | Variant | enrichment ratio
193 | ACQY | 0.317
194 | SGHA | ≤ 0.25
195 | VRRA | ≤ 0.25
196 | HGHY | ≤ 0.25
197 | SFKK | ≤ 0.25
198 | GMGT | ≤ 0.25
199 | WSYY | ≤ 0.25
200 | NCVY | ≤ 0.25
201 | NTKG | ≤ 0.25
202 | MVHM | ≤ 0.25
203 | DIDM | ≤ 0.25
204 | TQPC | ≤ 0.25
205 | TYTK | ≤ 0.25
206 | HETL | ≤ 0.25
207 | GALC | 9.42
208 | WRNC | ≤ 0.25
209 | AYAG | ≤ 0.25
210 | IDCP | ≤ 0.25
211 | QRCP | ≤ 0.25
212 | FIIG | ≤ 0.25
213 | IYDF | ≤ 0.25
214 | PHGY | ≤ 0.25
215 | TYNN | 0.28
216 | QVNN | ≤ 0.25

Row | Variant | enrichment ratio
217 | LCYL | 0.949
218 | VMHS | ≤ 0.25
219 | VQDW | ≤ 0.25
220 | EVLT | ≤ 0.25
221 | AYCC | 0.342
222 | SAFH | ≤ 0.25
223 | PTVW | ≤ 0.25
224 | FCCG | ≤ 0.25
225 | DLET | ≤ 0.25
226 | LRKW | ≤ 0.25
227 | FFLH | ≤ 0.25
228 | YLHP | ≤ 0.25
229 | QITL | ≤ 0.25
230 | FTQG | ≤ 0.25
231 | LGMA | ≤ 0.25
232 | RVRG | ≤ 0.25
233 | RAMC | ≤ 0.25
234 | VNAH | ≤ 0.25
235 | AKIN | ≤ 0.25
236 | KGQV | ≤ 0.25
237 | GWCR | ≤ 0.25
238 | NRFH | ≤ 0.25
239 | VYAV | ≤ 0.25
240 | QFIF | ≤ 0.25

Row | Variant | enrichment ratio
241 | GASF | ≤ 0.25
242 | FHMK | ≤ 0.25
243 | RPHY | ≤ 0.25
244 | TNGK | ≤ 0.25
245 | HWVH | ≤ 0.25
246 | APTF | ≤ 0.25
247 | YDWL | ≤ 0.25
248 | GIYV | ≤ 0.25
249 | MHCK | ≤ 0.25
250 | GSFR | ≤ 0.25
251 | MKGQ | ≤ 0.25
252 | GMDD | ≤ 0.25
253 | YLLR | ≤ 0.25
254 | VERI | ≤ 0.25
255 | TDQS | 0.714
256 | VEFE | ≤ 0.25
257 | HEYN | ≤ 0.25
258 | FYSS | ≤ 0.25
259 | MPKC | ≤ 0.25
260 | EPQG | ≤ 0.25
261 | DPGH | ≤ 0.25
262 | QMWF | 1.36
263 | KDVA | ≤ 0.25
264 | YNAH | ≤ 0.25

Row | Variant | enrichment ratio
265 | LHSF | ≤ 0.25
266 | STCH | 12.6
267 | LTNE | ≤ 0.25
268 | QLCE | ≤ 0.25
269 | ADWH | ≤ 0.25
270 | GSEH | ≤ 0.25
271 | SKSI | 5.03
272 | INPD | ≤ 0.25
273 | GLFF | ≤ 0.25
274 | REDG | ≤ 0.25
275 | MTHC | ≤ 0.25
276 | NNAG | ≤ 0.25
277 | NAFK | ≤ 0.25
278 | PINM | ≤ 0.25
279 | NDWS | ≤ 0.25
280 | GYWE | ≤ 0.25
281 | HYKL | ≤ 0.25
282 | PARH | ≤ 0.25
283 | WSDF | ≤ 0.25
284 | NIVM | ≤ 0.25
285 | QSKP | ≤ 0.25
286 | REAA | ≤ 0.25
287 | PTLR | ≤ 0.25
288 | VSPE | ≤ 0.25

Row | Variant | enrichment ratio
289 | FDGT | ≤ 0.25
290 | ENEC | ≤ 0.25
291 | EGAI | ≤ 0.25
292 | NNRN | ≤ 0.25
293 | RCSW | ≤ 0.25
294 | IEDI | ≤ 0.25
295 | FHVV | ≤ 0.25
296 | KNSK | ≤ 0.25
297 | ILIM | ≤ 0.25
298 | YQHE | ≤ 0.25
299 | CSYL | ≤ 0.25
300 | MQRG | ≤ 0.25
301 | LAYG | ≤ 0.25
302 | WIWR | ≤ 0.25
303 | HSDH | ≤ 0.25
304 | TCAC | 10.4
305 | DVCK | ≤ 0.25
306 | YERE | ≤ 0.25
